# This is one part of the list.
# T1: UNK ZnF1-3 (human, UniProt Q9C0B0 31-174)
# T1 sequence: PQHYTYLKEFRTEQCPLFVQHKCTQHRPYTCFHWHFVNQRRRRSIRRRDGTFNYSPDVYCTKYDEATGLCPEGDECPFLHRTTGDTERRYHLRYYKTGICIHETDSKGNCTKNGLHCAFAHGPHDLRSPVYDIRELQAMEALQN
# B1: chr11:100882373:100882374:+_ENSMUSG00000019302_ENSMUST00000044721|mus_mus|mus_mus_mus_hu_True|28_38 (ssRNA)
# RNA: GGGAGUUCUACAGUCCGACGAUCUUCCUGGUUUGUGUUGAUUUCCUUCAGUUCAUUUUCAAUCUUCUCAAAAUUGGCCUCUAAGUCAAUCAUGUCCCGAGGGAAGGGCACCUCUGGGUUUUCACCGGUGUCCAUAAUCGGAAUCAACAGAGGAUUGAGCAUCA
# B2: chr17:65740002:65740003:+_ENSG00000130935_ENST00000581375|hu_hu|hu_hu_hu_mus_False|48_98 (ssRNA)
# RNA: GGGAGUUCUACAGUCCGACGAUCAACAAAUCUUUCUCUGGAUGAAGAACAGGAAGAUUCAUAUUAAAAAAAAUAUAUAUCCAUCAAGGAGAAUUGAGUGGCCACACCUUUACUCCCAGCACUUUGGGAGGUGGAUCUCUGAGUCAACAGAGGAUUGAGCAUCA
# B3: 98652892_98654833_1226_CDS_ENSG00000065150_ENST00000490680|human|control|control (ssRNA)
# RNA: GGGAGUUCUACAGUCCGACGAUCAAAAAGUAAAACAAAAUUUACGAUCUCAUUUAGAAUUCCUUCCAUUUGCUGGUGGCACCCUUCACCAAUGGCAGAUAAGGCCAUCAAUCCUGCAUGCCGGUAUUUCCAGUCAGGAUUUUGCAACAGAGGAUUGAGCAUCA
# B4: chr8:126034020:126034021:+_ENSG00000104549_ENST00000265896|hu_hu|FALSE|FALSE (ssRNA)
# RNA: GGGAGUUCUACAGUCCGACGAUCCUUAAAGCAAAAAUACACGGCAUAGAUUGCAACAGCAAAGAAGUGUCCAAUUAAAACUAGAGGGUUAGGAGACAAUACAGAAAGCAGCCCAACAGGACCCGCAACACAUUCGCCACCAAGCAACAGAGGAUUGAGCAUCA
# B5: 61725924_61726915_1310_CDS_ENSG00000082898_ENST00000401558|human|control|control (ssRNA)
# RNA: GGGAGUUCUACAGUCCGACGAUCUUCCAUUACAAACUGACACAGUUGAAAUAUCUGUGAGAAUUCAUUGCACAUGCUGUCUUUUAAAUGCUUAGAUUUGACUUGGGUUAUCUGUCCACUAGAGAAAUCAAAUACUUCUUCACUCAACAGAGGAUUGAGCAUCA
# B6: chr4:107545374:107545375:+_ENSMUSG00000028613_ENSMUST00000106731|mus_mus|motif|central (ssRNA)
# RNA: GGGAGUUCUACAGUCCGACGAUCGUUGAUGGAUAGCCACAAAGCAUAAUUUUAUUUACAAAAAAAUCAAGCCCCUCAAACCGGAAAAAGCUCUCAACUCAAACAUCCUCUGUAAAUACUGUAUUCAAAUGAUGAGUGAAGUUUCAACAGAGGAUUGAGCAUCA
# Biological target: T1, UNK ZnF1-3
# Experiment: nsRBNS (natural sequence RNA bind-n-seq); RBNS binding buffer (assumed for nsRBNS): 25 mM Tris pH 7.5, 150 mM KCl, 3 mM MgCl2, 0.01% Triton X-100, 500 ug/ml BSA, 20 U/ml SUPERase-In, 4 C; UNK is unkempt and MSI1 is Musashi-1; names of the RNAs are library labels; protein concentration not given here; high values mean tight binding
row,Binder,binding signal [enrichment R]
1,B1,0.433
2,B2,2.68
3,B3,0.497
4,B4,1.35
5,B5,0.621
6,B6,1.7
